Results taken from PubChem BioAssay AID493208 (National Center for Advancing Translational Sciences (NCATS), 2011).
The whole screen tested about 44,000 compounds, of which about 340 (0.77%) were called active. Another 5% or so got no clear call; they are omitted. The call rests on the fitted dose curve; in most records, active means well fitted inhibition curve with a large enough effect; inconclusive means small, poorly fitted or top-dose-only effect; inactive means flat fitted curve, though single readings scatter. Some of the results follow.

test: Acumen qHTS Assay for Inhibitors of the mTORC1 Signaling Pathway in MEF (Tsc2-/-, p53-/-) Cells: Sytravon; conditions: phospho-rpS6 immunofluorescence/PI, 24 h; series mostly up to 38.3 µM; activity change, negative = inhibition: at the top concentration;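 further: plate controls were DMSO for no effect and rapamycin for full effect; nearly all actives have a fitted effect of over 50% in size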
Procedure, shortened: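 Readout is phospho-S6 Alexa 488 signal normalized to PI per well, reported as % active cells with thresholds set from rapamycin (7.5 nM) and DMSO controls. Cells: Tsc2-/-, p53-/- MEFs, 24 hrs compound at 37 C; PI cell number serves as viability.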

Activity change, negative = inhibition, inactive:
Cc1cc(C)n(C(C)CC(=O)NCc2ccccc2C)n1 (stereo unspecified) -4.7%, CC(=O)Nc1ccc(S(=O)(=O)N2CCC(c3ccncc3)CC2)cc1 -5.32%, COc1ccc(Br)cc1C(=O)Nc1ccc2oc(-c3cccnc3)nc2c1 -3.16%, CCCCN(CCCC)c1ncnc2c1cnn2-c1cccc(C)c1 0.715%, COc1ccccc1CNC(=O)Cc1c(C)c2c(cc(C)c3c(C)c(C)oc32)oc1=O 1.11%, COc1ccc(OCc2ccc(-c3nc(C#N)c(N4CCN(C)CC4)o3)o2)cc1 -4.59%, COc1ccc(CCNC(=O)CCCn2c(=O)c3cccn3c3cccnc32)cc1OC 0.712%, Cc1ccc2c(CN3CCN(Cc4ccccc4Cl)CC3)cc(=O)oc2c1 -10.7%, COc1ccc(C2CC(=O)Nc3c2c(=O)nc2c(C)cccn32)cc1OC (stereo unspecified) -3.25%, CCOC(=O)c1c(NC(=O)COc2cccc(C(F)(F)F)c2)sc2c1CCC(C)C2 (stereo unspecified) -7.28%, CCN(CC)c1nn2c(=O)c(C(=O)NCCc3ccc(C)cc3)cnc2s1 3.46%, COc1ccc(NC(=O)c2ccc(CN3C(=O)CCn4nc(C)cc43)cc2)c(OC)c1 3.98%, CCn1c2ccccc2c2nnc(N3CCN(c4ccc(F)cc4)CC3)nc21 3.17%, Cc1nc2sc(C(=O)N(C)Cc3ccccc3)c(NC(=O)c3ccccc3)c2c(C)c1Cl -3.48%, CCOC(=O)c1cc2c(=O)n3ccccc3nc2n(CC2CCCO2)c1=NC(=O)c1ccc(C(C)(C)C)cc1 (stereo unspecified) 6.69%, CCOc1ccc(CNC(=O)c2ccc(Sc3ccc(Cl)cc3)c(NC(C)=O)c2)cc1 -14.6%, COc1ccc(NC(=O)CSc2cn(CC(=O)N3CCCCC3)c3ccccc23)c(OC)c1 0.726%, CCCC(=O)Nc1ccc2c(c1)nc(CN1CCN(C(=O)OCC)CC1)n2C(C)C -17.7%, Cc1cc(C)cc(Nc2ncnc3c2nc2n3CCCC2)c1 7.24%, COc1ccc(N2CC(NC(=O)COc3ccccc3F)CC2=O)cc1OC (stereo unspecified) 0.936%, COc1ccc(C)c2sc(NC(=O)c3ccc(S(=O)(=O)N4CCCCC4)cc3)nc12 9.73%, CC(C)CCNC(=O)CN1C(=O)CCn2nc(-c3cn(C)c4ccccc34)cc21 4.31%, CCCOc1ccc(NC(=O)CC2C(=O)N(c3ccc(C)cc3)C(=O)N2C(C)C)cc1 (stereo unspecified) -3.47%, CCCOc1ccc(/C=C/C(=O)Nc2sc(C)c(C)c2C(=O)OCC)cc1OC 8.85%, CCOc1ccc(S(=O)(=O)NCCc2csc(-c3ccc(Cl)cc3)n2)cc1 0.0742%, Cc1nc(S(=O)(=O)N2CCN(c3ccc(Cl)cc3)CC2)cn1C 4.01%, Cc1nnc(SCc2cc(=O)c3ccccc3[nH]2)s1 -15.4%, CCOc1ccc(CCNC(=O)c2ccc(-c3nc(CSc4ccc(C)cc4)c(C)o3)cc2)cc1 0.143%, O=C(COc1ccccc1)Nc1sc2c(c1C(=O)Nc1ccccc1Cl)CCCCC2 9.63%, CCN(Cc1nc(-c2cccc(C)c2)no1)S(=O)(=O)c1ccc(C)cc1 -10.9%, COc1ccc(N(CC(=O)Nc2ccc(C)c(C)c2)S(=O)(=O)c2ccc(C)cc2)cc1OC 9.67%, Cc1cccc(C)c1NC(=O)CN1C(=O)CCSc2ccc(S(=O)(=O)N3CCCC3)cc21 -0.822%, COC(=O)c1cc(NC(=O)Nc2ccc3snnc3c2)cc(C(=O)OC)c1 -6.88%, Cc1ccc(NC(=O)C(=O)NCC(c2cccnc2)N2CCOCC2)cc1 (stereo unspecified) 8.55%, CC1CCN(C(=O)c2ccc3c(c2)N(Cc2ccccc2F)C(=O)c2ccccc2S3(=O)=O)CC1 -5.39%, COc1ccc(S(=O)(=O)n2nc(C)c(S(=O)(=O)N3CCCCC3)c2C)cc1 -1.55%, Cc1c(Cl)cccc1-n1ncc(C(=O)N2CCN(C)CC2)c1C1CCN(C(=O)OC(C)(C)C)CC1 -1.67%, COc1ccc(CNC(=O)Cn2nc(C)n3cccc3c2=O)cc1 3.42%, COc1ccc(-c2nc(SCC(=O)NC3CCCC3)c(-c3ccc(OC)cc3)[nH]2)cc1 -17.5%, COc1ccccc1N1CCN(C(=O)c2cc3c(=O)n(C)c4ccccc4c3s2)CC1 -5.83%, C=C(C)Cn1c(SCC(=O)Nc2ccccc2C)nc2sc3c(c2c1=O)CCCC3 5.09%, COc1ccccc1-c1noc(-c2ccc(N3CCOCC3)c([N+](=O)[O-])c2)n1 2.49%, CC(=O)c1ccc(N2CCN(c3ncnc4c3c(-c3ccccc3)cn4-c3ccc(C)c(Cl)c3)CC2)cc1 10.8%, CC(C)Cn1c(=O)c2ccccc2n2c(CCC(=O)N3CCN(c4cccc(Cl)c4)CC3)nnc12 -9.68%, COCCCN(Cc1ccco1)C(=O)c1cc2c(s1)-c1ccccc1OC2 -6.63%, COc1ccc(CCNC(=O)Cn2cc(C(=O)c3ccc(Cl)cc3)c(=O)c3ccc(C)nc32)cc1OC -4.76%, CCOC(=O)C1CCN(c2nc3c(S(=O)(=O)c4ccc(Br)cc4)nnn3c3ccsc23)CC1 -1.88%, FC(F)(F)c1cccc(-n2cc(-c3ccccc3)c3c(N4CCCCC4)ncnc32)c1 8.02%, CCCN(CCC)CCNC(=O)Cn1cnc2sc(C)c(S(=O)(=O)N3CCC(C)CC3)c2c1=O -1.61%, COc1ccccc1CNC(=O)CN1C(=O)CCc2cc(S(=O)(=O)N3CCCCC3)ccc21 12.8%, COc1ccc(C(=O)NCCn2cc(SCc3cccc(F)c3)c3ccccc32)cc1OC 5.21%, O=C(CSc1nc(-c2cccs2)nc2cc(=O)[nH]n12)Nc1ccccc1 0.383%, CCc1ccc(NC(=O)CC(c2cc(OC)c(OC)c(OC)c2)N2Cc3ccccc3C2=O)cc1 (stereo unspecified) 0.828%, COc1ccc(S(=O)(=O)N(CCc2ccccc2)CC(=O)NCc2ccccc2)cc1 -6.12%, COCCN1C(=O)c2oc3cc(C)cc(C)c3c(=O)c2C1c1cccc(O)c1 (stereo unspecified) -2.51%, COc1ccc(CNC(=O)c2cc3c(-c4ccc(Cl)cc4)nn(C)c3s2)cc1 -12.6%, CCOC(=O)c1cccc(NC(=O)Cn2nc3c(cc2=O)CCCC3)c1 0%, Cn1c(=O)n(C)c2cc(NS(=O)(=O)c3ccc(F)cc3)c(NCc3ccccc3)cc21 -21.6%, Cc1ccc(N2CC(C(=O)NCCS(=O)(=O)N3CCN(c4ccccc4)CC3)CC2=O)cc1 (stereo unspecified) 13%, Cc1ccc(-c2c(CN3CCN(c4cc(C)ccc4C)CC3)csc2C)cc1 -15.1%, Cc1c(C(=O)NC(C)c2ccccc2)sc2ncnc(N(C)C3CCCCC3)c12 (stereo unspecified) -6.65%
